Laboratory results: PubChem BioAssay AID1347165 (National Center for Advancing Translational Sciences (NCATS), 2019)
About 5,700 (2.6%) of roughly 220,000 compounds were called active. This list was built around the results that the source calls inconclusive (neither active nor inactive); the mix of calls is not that of the screen. Calls follow the shape of the dose curve; as a rule, active = well fitted inhibition curve with a large enough effect; inconclusive = small, poorly fitted or top-dose-only effect; inactive = no such curve, though single readings can be large or run the other way. Potencies of inconclusive entries are doubtful fits and often do not repeat.

biological target: Lysine-specific demethylase 5B (Homo sapiens) (UniProt Q9UGL1); experiment: Primary screen for KDM5B Histone Demethylases FDH-coupled qHTS; details: FDH-coupled NADH fluorescence (FDH is formaldehyde dehydrogenase); activity change, negative = inhibition: at 57.7 µM (top of the series) unless noted; also: nearly all actives have a fitted effect of over 70% in size; as to activity change, negative = inhibition: 0% is about no effect
Sequence of UniProt Q9UGL1 (Q9UGL1 whole entry, looked up): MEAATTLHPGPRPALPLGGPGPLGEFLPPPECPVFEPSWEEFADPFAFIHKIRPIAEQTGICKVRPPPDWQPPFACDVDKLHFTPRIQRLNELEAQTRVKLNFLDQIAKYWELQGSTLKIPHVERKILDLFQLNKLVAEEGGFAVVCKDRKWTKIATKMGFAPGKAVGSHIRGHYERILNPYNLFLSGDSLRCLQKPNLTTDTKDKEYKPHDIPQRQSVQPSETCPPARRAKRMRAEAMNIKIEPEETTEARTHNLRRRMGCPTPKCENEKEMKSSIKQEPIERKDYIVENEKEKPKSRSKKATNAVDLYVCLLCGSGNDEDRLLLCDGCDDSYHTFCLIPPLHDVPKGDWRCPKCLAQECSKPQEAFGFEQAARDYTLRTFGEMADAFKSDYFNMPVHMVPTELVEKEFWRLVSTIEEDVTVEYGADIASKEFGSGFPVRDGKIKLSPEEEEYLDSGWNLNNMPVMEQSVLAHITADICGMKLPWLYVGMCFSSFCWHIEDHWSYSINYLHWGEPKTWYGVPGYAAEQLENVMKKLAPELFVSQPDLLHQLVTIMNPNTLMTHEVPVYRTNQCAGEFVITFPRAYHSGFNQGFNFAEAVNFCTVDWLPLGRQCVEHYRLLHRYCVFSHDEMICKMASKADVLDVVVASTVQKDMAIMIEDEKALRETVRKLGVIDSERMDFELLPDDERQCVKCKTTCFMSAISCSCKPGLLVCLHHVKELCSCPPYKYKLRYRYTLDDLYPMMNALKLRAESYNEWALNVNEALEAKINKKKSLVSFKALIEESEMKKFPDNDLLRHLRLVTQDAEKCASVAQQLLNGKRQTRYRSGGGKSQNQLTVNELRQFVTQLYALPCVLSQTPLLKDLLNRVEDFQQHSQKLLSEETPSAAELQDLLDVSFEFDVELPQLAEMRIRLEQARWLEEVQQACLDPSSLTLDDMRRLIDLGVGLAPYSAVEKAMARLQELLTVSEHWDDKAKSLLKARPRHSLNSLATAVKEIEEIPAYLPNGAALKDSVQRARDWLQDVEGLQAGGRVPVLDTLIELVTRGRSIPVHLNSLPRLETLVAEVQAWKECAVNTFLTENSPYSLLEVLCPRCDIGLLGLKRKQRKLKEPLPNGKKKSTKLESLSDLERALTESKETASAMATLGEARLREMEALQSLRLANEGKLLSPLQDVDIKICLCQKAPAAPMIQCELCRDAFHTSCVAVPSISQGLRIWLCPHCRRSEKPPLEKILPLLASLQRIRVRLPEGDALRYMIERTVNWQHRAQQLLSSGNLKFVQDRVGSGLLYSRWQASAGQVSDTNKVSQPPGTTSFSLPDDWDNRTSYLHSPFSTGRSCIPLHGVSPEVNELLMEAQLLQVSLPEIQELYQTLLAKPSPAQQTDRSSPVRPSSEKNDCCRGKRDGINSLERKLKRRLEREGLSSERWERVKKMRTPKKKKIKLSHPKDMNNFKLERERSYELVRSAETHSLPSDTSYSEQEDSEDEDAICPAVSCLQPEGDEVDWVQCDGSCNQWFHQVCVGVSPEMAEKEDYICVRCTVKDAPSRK
Outline: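 Here, H3K4me3 peptide (12.5 µM in substrate mix) is demethylated by KDM5BΔAP, 200 nM final, after 10 min compound exposure. Formaldehyde product is coupled through FDH (0.25 U/mL in mix) to NADH fluorescence; 30-min ΔRFU feeds dose-response curves.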
Potency is read from the fitted curve at half-maximal effect; tags tell the direction and shape of the fitted curve.

SMILES | Potency | activity change, negative = inhibition
CCC(C)NC(=O)CCc1c(C)nc2cc(-c3ccc(OC)cc3OC)nn2c1C (stereo not drawn) | inconclusive: 3.98 µM [inhibitor, full curve, poor fit] | –
Cc1cccc(CCNC(=O)C2CCN(c3nc4ccccc4nc3C(F)(F)F)CC2)c1 | inconclusive: 15.8 µM [inhibitor, partial curve, poor fit] | –
N#Cc1cccc(CNC(=O)c2nccnc2N)c1 | inconclusive: 22.4 µM [inhibitor, partial curve, poor fit] | –
COc1ccccc1N1CCN(c2ncccc2CNC(C)Cn2ccnc2)CC1 (stereo not drawn) | inactive | –
Fc1ccc(CNC(=S)NCCc2ccccc2)cc1 | inactive | –
Cc1ccc(C#N)c(N2CCCC(c3nnc(Cn4cccn4)n3C)C2)n1 (stereo not drawn) | active: 28.2 µM | –
CN(C)C[C@@H]1CN(c2ncccn2)C[C@H]1NC(=O)c1ccc(C#N)cc1 | inconclusive: 31.6 µM [inhibitor, partial curve, poor fit] | –
O=S(=O)(NCCc1ncc2ccccn12)c1ccc(Cl)cc1 | inactive | –
Cc1ccc(OCC(=O)Nc2ccc3c(c2)nc(CCn2nc(C)cc2C)n3C)cc1 | inactive | –
O=C(COc1ccccc1)N1CCCC2(C1)Nc1cccnc1NC2=NCc1ccccc1 (stereo not drawn) | inconclusive: 28.2 µM [inhibitor, partial curve, poor fit] | –
O[C@@H]1C[C@@H](c2nnc3n2CCN(Cc2ccc4c(c2)CCO4)C3)N(Cc2cccnc2)C1 | inconclusive: 20 µM [inhibitor, partial curve, poor fit] | –
O=C1NCCCCCN(C(=O)C2CCC2)[C@@H]2C[C@@H](C(=O)N3CCc4ccccc4C3)C[C@H]12 | inconclusive: 25.1 µM [inhibitor, partial curve, poor fit] | –
CCN(Cc1noc(C2CCC2)n1)C(=O)CC1C(=O)NCCN1CC(C)C (stereo not drawn) | inconclusive: 12.6 µM [inhibitor, partial curve, poor fit] | –
CC(=O)N1CCN(Cc2nc3cc([N+](=O)[O-])ccc3n2C)CC1 | inconclusive: 1.78 µM [inhibitor, full curve, poor fit] | –
COc1cccc2c(C)nc(Nc3nc(C)c(Cc4ccc(Cl)cc4)c(=O)[nH]3)nc12 | inactive | –
COc1ccc(C(=O)Oc2cccc(C)c2C)cc1I | inactive | –
O=C(Cc1ccc(F)cc1)N1CCCC(c2nn(-c3ccccc3)c(=O)[nH]2)C1 (stereo not drawn) | inactive | –
Cc1nn(C)c2nc(-c3ccccn3)nc(N3CCC(c4ccc(F)cc4)C3)c12 (stereo not drawn) | inconclusive: 35.5 µM [inhibitor, single point] | –
Nc1nccnc1C(=O)NCCc1cn2ccccc2n1 | inconclusive: 25.1 µM [inhibitor, partial curve, poor fit] | –
Cc1ccc(CNC(=O)CCC(=O)N2CCSc3ccccc32)cc1 | – | inconclusive: -36.4% [inhibitor]
OC1CCOC2(CCN(Cc3ccncc3)CC2)C1 (stereo not drawn) | inconclusive: 39.8 µM [inhibitor, partial curve, poor fit] | –
CCN(CC(O)COCCC12CC3CC(CC(C3)C1)C2)C1CCCCC1 (stereo not drawn) | inactive | –
CCCCNC(=S)Nc1cccc(Cl)c1 | inactive | –

SMILES | Potency | activity change, negative = inhibition
O=C(NCc1cccs1)c1cc2n(n1)CC(c1ccc3c(c1)OCO3)OC2 (stereo not drawn) | inconclusive: 22.4 µM [inhibitor, single point] | –
COCc1cc(C)nc2sc(C(=O)Nc3cc(C)ccc3F)c(N)c12 | inconclusive: 22.4 µM [inhibitor, partial curve, poor fit] | –
CN(C)C(=O)c1n[nH]c2c1CN(C(=O)c1ccc(F)c(F)c1)CC2 | inactive | –
CC(=O)N(CCC(Cc1ccccc1)c1ccco1)Cc1ccco1 (stereo not drawn) | inconclusive: 25.1 µM [inhibitor, partial curve, poor fit] | –
CCN(C(=O)Cc1nc(-c2cccs2)oc1C)c1ccccc1 | inconclusive: 22.4 µM [inhibitor, partial curve, poor fit] | –
COc1ccc(Nc2cnc3ccc(-c4ccc(OC)nc4)nn23)cn1 | inconclusive: 35.5 µM [inhibitor, partial curve, poor fit] | –
C=CCNC(=O)NC(=O)CSc1nc(-c2ccccc2)c(-c2ccccc2)o1 | inconclusive: 25.1 µM [inhibitor, partial curve, poor fit] | –
CCc1noc(C)c1C(=O)Nc1sc(C)cc1C(=O)OC | inactive | –
COC(=O)[C@@H]1Cc2ncn(Cc3ccc(Cl)cc3)c2CN1C(=O)c1ccccc1OC | inconclusive: 35.5 µM [inhibitor, partial curve, poor fit] | –
CCCN(C(=O)Cn1cc(S(=O)(=O)N2CCN(c3ccccc3F)CC2)c2ccccc2c1=O)c1cccc(C)c1 | inconclusive: 15.8 µM [inhibitor, partial curve, poor fit] | –
CC(C)CN(CCNC(=O)c1cc(-c2ccc(Cl)s2)nc2ccccc12)CC(C)C | inconclusive: 10 µM [inhibitor, partial curve, poor fit] | –
COCc1cc(=O)n(CC(=O)NCc2ccc(F)cc2)c(N2CCOCC2)n1 | inconclusive: 31.6 µM [inhibitor, partial curve, poor fit] | –
COc1cccc(CNC(=O)Cn2c(C)c3cnn(-c4ccccc4)c(=O)c3c2C)c1 | – | inconclusive: -32.8% [inhibitor]
COc1cccc(-c2cc(C(=O)NCc3c(C)cc(C)[nH]c3=O)c3c(c2)N(C(C)C)CCO3)c1OC | active: 28.2 µM | –
Cc1cn2nc(C(=O)N3CCC(NC(=O)c4ccco4)CC3)cc2c(=O)[nH]1 | inconclusive: 25.1 µM [inhibitor, partial curve, poor fit] | –
O=Cc1cccn1-c1ccccc1Br | inactive | –
Cc1ccsc1CN1CCc2nc(N3CCN(c4ccccc4F)CC3)ncc2C1 | inconclusive: 28.2 µM [inhibitor, partial curve, poor fit] | –
O=c1[nH]c(O)c(C=Nc2ccc(Cl)cc2Cl)c(=O)[nH]1 | inconclusive: 25.1 µM [inhibitor, single point] | –
CN1CCc2nc(NC(=O)CN3C(=O)COc4ccccc43)sc2C1 | inconclusive: 17.8 µM [inhibitor, partial curve, poor fit] | –
Cc1cnc2c(S(=O)(=O)NCCCNS(C)(=O)=O)cccc2c1 | inactive | –
O=C(CCC[C@H]1NC[C@@H]2C[C@H]1CN(Cc1ccccc1)C2)NCCN1CCCCC1 | inactive | –
O=C(c1ccccc1Cl)N1CCc2c(nc3cc(-c4ccccc4)[nH]n3c2=O)C1 | active: 35.5 µM | –
O=C(Nc1ccc(C(F)(F)F)cc1)N1CCC(N2CCCCC2)CC1 | inconclusive: 1.41 µM [inhibitor, full curve, poor fit] | –

SMILES | Potency | activity change, negative = inhibition
COCCn1c(C(=O)NCc2ccccc2)nc2ccccc2c1=O | inactive | –
c1coc(-c2noc(CCCc3nc(C4CCOC4)no3)n2)c1 (stereo not drawn) | inconclusive: 28.2 µM [inhibitor, partial curve] | –
CNC(=O)C1CCN(c2nc3ccccc3nc2C(F)(F)F)CC1 | inactive | –
CC1(C)[C@H](Cc2cc(CN3CCN(c4ccccc4)CC3)on2)C[C@@H]1NC(=O)NCc1ccccc1 | inactive | –
Cc1cccn2c(CC(=O)N3Cc4[nH]cnc4CC3C(=O)O)cnc12 (stereo not drawn) | inconclusive: 25.1 µM [inhibitor, partial curve, poor fit] | –
COc1ccc(-c2cnc3[nH]cc(CC(=O)N4CCNC(=O)C4)c3c2)cc1 | active: 35.5 µM | –
O=C(O)CC1(CC(=O)N2CCC(Cc3ccccc3)CC2)CCCC1 | inactive | –
O=C(NCc1cccc(Cl)c1)C1CCCN(c2ncnc3onc(-c4ccc(F)cc4)c23)C1 (stereo not drawn) | inconclusive: 25.1 µM [inhibitor, partial curve, poor fit] | –
CC1(C)CNC(=O)c2sc(NC(=O)c3ccccc3)nc2C1 | inconclusive: 39.8 µM [inhibitor, single point] | –
Cc1cccc(Cn2nnc3c(=O)[nH]c(C4CCN(C(=O)c5ccc(F)cc5)CC4)nc32)c1 | inactive | –
Cc1ccc2c(c1)N(C(=O)Nc1cccc3c1CCCC3)CC(C)O2 (stereo not drawn) | inconclusive: 1.41 µM [inhibitor, partial curve, poor fit] | –
Cc1ccc(NC(=O)Nc2c(NC3CCCC3)c3ccccc3oc2=O)cc1F | inactive | –
COc1ccc2c(c1)OCC(C(=O)N(C)Cc1nccn1Cc1ccccc1)C2 (stereo not drawn) | inconclusive: 20 µM [inhibitor, single point] | –
Cc1ccc2oc(-c3cc(NC(=O)/C=C/c4ccco4)ccc3Cl)nc2c1 | inconclusive: 14.1 µM [inhibitor, partial curve, poor fit] | –
Cc1cc(C)n(CCC(=O)N[C@@H]2CN(c3ncccn3)C[C@H]2CO)n1 | inconclusive: 17.8 µM [inhibitor, partial curve, poor fit] | –
COCCN(C)Cc1c(C(=O)N(C)Cc2ccccc2)nc2ccccn12 | inactive | –
CC(=O)Nc1nonc1-c1nc2ccccc2n1Cc1ccccc1Br | inconclusive: 25.1 µM [inhibitor, partial curve, poor fit] | –
O=C(CSc1nc2cc([N+](=O)[O-])ccc2o1)Nc1ccc2ccccc2c1 | inactive | –
COc1ccccc1-c1cnc(Nc2ccc(Cl)cn2)c2c1CCO2 | active: 35.5 µM | –
N#Cc1cc2cc3c(cc2nc1SCC(=O)N1CCOCC1)OCCO3 | inconclusive: 28.2 µM [inhibitor, single point] | –
CCn1nc(C)cc1S(=O)(=O)N1CCC2(CC1)NC(=O)CC2C(=O)O (stereo not drawn) | inconclusive: 7.94 µM [inhibitor, full curve] | –
CCC(C)(C)C1CCc2c(sc(NC(=O)c3ccccc3C(=O)O)c2C#N)C1 (stereo not drawn) | inconclusive: 39.8 µM [inhibitor, single point] | –
